B1: Caulobacter ParB omega fusion; a variant is named by its letters at X, in order, B8GW30 (parent)
chain: MESVVVGEPGMSEGRRGLGRGLSALLGEVDAAPAQAPGEQLGGSREAPIEILQRNPDQPRRTFREEDLEDLSNSIREKGVLQPILVRPSPDTAGEYQIVAGERAWRAAQRAGLKTVPIMVRELDDLAVLEIGIIENVQRADLNVLEEALSYKVLMEKFERTQENIAQTIGKSXSHVANXMRLLXLPDEVQSYLVSGELTAXHARAIAAAADPVALAKQIIEGGLSVRETEALARKAPNLSAGKSKGGRPPRVKDTDTQALESDLSSVLGLDVSIDHRGSTGTLTITYATLEQLDDLCNRLTRGI

The full ranking holds about 81,000 sequences; the median of “one-hybrid fitness for binding NBS DNA” is about -0.1, and the highest 2% start at about 0.36. Some of the results follow.

In the test the parent is B1. The experiment in a line: one-hybrid fitness for binding NBS DNA (the Noc-binding site; scaled: cognate 1, non-cognate 0); higher = stronger binding. As to conditions: with NBS DNA site. A digest of the protocol:
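Fitness is the rescaled log change in variant-to-wild-type read ratio, measured by Illumina sequencing of plasmids before and after bacterial one-hybrid selection. The scale puts cognate at 1 and non-cognate at 0. Selection of Caulobacter ParB libraries, four specificity codons randomised, took place in E. coli USO with a HIS3 reporter, site 19 bp from the promoter, over 48 hours at 37°C on M9-minus-histidine with 0.1 mM IPTG and 5 mM 3-AT.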
Take TCIC: the “one-hybrid fitness for binding NBS DNA” value is not above 0.2. To YQRA belongs not above 0.2; to EGFL, not above 0.2. In the case of LRAG, the “one-hybrid fitness for binding NBS DNA” value is not above 0.2. On to VLFS, for which the “one-hybrid fitness for binding NBS DNA” value was not above 0.2. On to GTRG, for which the “one-hybrid fitness for binding NBS DNA” value is not above 0.2. Under TVIL stands not above 0.2. Under LMHT stands not above 0.2. To KTDG belongs not above 0.2; to NQQW, not above 0.2. As for TVDR, the “one-hybrid fitness for binding NBS DNA” value is not above 0.2. Consider VLYQ, for which the “one-hybrid fitness for binding NBS DNA” value is not above 0.2. To NGGG belongs not above 0.2. NYPL: the “one-hybrid fitness for binding NBS DNA” value was not above 0.2. Regarding TNYT, the “one-hybrid fitness for binding NBS DNA” value was not above 0.2. To WCAT belongs not above 0.2; to QWHS, not above 0.2; to PTWL, not above 0.2. On to RNER, for which the “one-hybrid fitness for binding NBS DNA” value came out at 0.361. Consider NTTN, for which the “one-hybrid fitness for binding NBS DNA” value was not above 0.2. To KQRP belongs not above 0.2; to CRKR, 0.417; to HANW, not above 0.2. Take LGKI: the “one-hybrid fitness for binding NBS DNA” value was not above 0.2. Take TNYP: the “one-hybrid fitness for binding NBS DNA” value is not above 0.2.

Take THLI: the “one-hybrid fitness for binding NBS DNA” value is not above 0.2. Under TMIE stands not above 0.2; under VAGY, not above 0.2; under RIKP, not above 0.2. To PRAL belongs not above 0.2; to SLKD, not above 0.2; to YDEP, not above 0.2. As for TMFT, the “one-hybrid fitness for binding NBS DNA” value was not above 0.2. To EPFC belongs not above 0.2; to NHYN, not above 0.2; to TMGC, not above 0.2. To YFAS belongs not above 0.2; to TSGW, not above 0.2; to RERD, not above 0.2.

For the variant CVES, the “one-hybrid fitness for binding NBS DNA” value was not above 0.2. With GDTR, the “one-hybrid fitness for binding NBS DNA” value is not above 0.2. Under KNCV stands not above 0.2; under EQRR, 0.201; under QMGR, 0.591. Under QRPE stands not above 0.2. To MGAS belongs not above 0.2. In the case of ETNK, the “one-hybrid fitness for binding NBS DNA” value is not above 0.2. Turning to VKFG, the “one-hybrid fitness for binding NBS DNA” value is not above 0.2. As for IELT, the “one-hybrid fitness for binding NBS DNA” value was not above 0.2.

Turning to TPSK, the “one-hybrid fitness for binding NBS DNA” value was not above 0.2. For LQPS, the “one-hybrid fitness for binding NBS DNA” value was not above 0.2. Regarding LACV, the “one-hybrid fitness for binding NBS DNA” value is not above 0.2. To IAVW belongs not above 0.2; to RWEK, not above 0.2. Under GLLQ stands not above 0.2.

As for EATK, the “one-hybrid fitness for binding NBS DNA” value is not above 0.2. Regarding MSAW, the “one-hybrid fitness for binding NBS DNA” value was not above 0.2. On to APFA, for which the “one-hybrid fitness for binding NBS DNA” value is not above 0.2. Under KAMR stands not above 0.2; under ANPC, not above 0.2; under ISDG, not above 0.2. To RLKH belongs 0.35; to CIMR, not above 0.2. Consider SMQC, for which the “one-hybrid fitness for binding NBS DNA” value was not above 0.2.

In the case of CHYC, the “one-hybrid fitness for binding NBS DNA” value was not above 0.2. Under VRHA stands not above 0.2. For AKTM, the “one-hybrid fitness for binding NBS DNA” value is not above 0.2. To AFTD belongs not above 0.2. To KPTW belongs not above 0.2; to QYRF, 0.248.

In the case of VYKS, the “one-hybrid fitness for binding NBS DNA” value is not above 0.2. To MTNR belongs not above 0.2.

On to ERLI, for which the “one-hybrid fitness for binding NBS DNA” value is not above 0.2. To NQLY belongs not above 0.2; to HKER, not above 0.2; to PAAL, not above 0.2.

Consider YMTN, for which the “one-hybrid fitness for binding NBS DNA” value was not above 0.2.

For the origin of these results see a collection of fitness landscapes (doi:10.1016/j.celrep.2020.107928).
